# Results published in article PMC6043480.
# By UniProt entry, the sequences of proteins in these tests, tags left out.
# UniProt Q12888: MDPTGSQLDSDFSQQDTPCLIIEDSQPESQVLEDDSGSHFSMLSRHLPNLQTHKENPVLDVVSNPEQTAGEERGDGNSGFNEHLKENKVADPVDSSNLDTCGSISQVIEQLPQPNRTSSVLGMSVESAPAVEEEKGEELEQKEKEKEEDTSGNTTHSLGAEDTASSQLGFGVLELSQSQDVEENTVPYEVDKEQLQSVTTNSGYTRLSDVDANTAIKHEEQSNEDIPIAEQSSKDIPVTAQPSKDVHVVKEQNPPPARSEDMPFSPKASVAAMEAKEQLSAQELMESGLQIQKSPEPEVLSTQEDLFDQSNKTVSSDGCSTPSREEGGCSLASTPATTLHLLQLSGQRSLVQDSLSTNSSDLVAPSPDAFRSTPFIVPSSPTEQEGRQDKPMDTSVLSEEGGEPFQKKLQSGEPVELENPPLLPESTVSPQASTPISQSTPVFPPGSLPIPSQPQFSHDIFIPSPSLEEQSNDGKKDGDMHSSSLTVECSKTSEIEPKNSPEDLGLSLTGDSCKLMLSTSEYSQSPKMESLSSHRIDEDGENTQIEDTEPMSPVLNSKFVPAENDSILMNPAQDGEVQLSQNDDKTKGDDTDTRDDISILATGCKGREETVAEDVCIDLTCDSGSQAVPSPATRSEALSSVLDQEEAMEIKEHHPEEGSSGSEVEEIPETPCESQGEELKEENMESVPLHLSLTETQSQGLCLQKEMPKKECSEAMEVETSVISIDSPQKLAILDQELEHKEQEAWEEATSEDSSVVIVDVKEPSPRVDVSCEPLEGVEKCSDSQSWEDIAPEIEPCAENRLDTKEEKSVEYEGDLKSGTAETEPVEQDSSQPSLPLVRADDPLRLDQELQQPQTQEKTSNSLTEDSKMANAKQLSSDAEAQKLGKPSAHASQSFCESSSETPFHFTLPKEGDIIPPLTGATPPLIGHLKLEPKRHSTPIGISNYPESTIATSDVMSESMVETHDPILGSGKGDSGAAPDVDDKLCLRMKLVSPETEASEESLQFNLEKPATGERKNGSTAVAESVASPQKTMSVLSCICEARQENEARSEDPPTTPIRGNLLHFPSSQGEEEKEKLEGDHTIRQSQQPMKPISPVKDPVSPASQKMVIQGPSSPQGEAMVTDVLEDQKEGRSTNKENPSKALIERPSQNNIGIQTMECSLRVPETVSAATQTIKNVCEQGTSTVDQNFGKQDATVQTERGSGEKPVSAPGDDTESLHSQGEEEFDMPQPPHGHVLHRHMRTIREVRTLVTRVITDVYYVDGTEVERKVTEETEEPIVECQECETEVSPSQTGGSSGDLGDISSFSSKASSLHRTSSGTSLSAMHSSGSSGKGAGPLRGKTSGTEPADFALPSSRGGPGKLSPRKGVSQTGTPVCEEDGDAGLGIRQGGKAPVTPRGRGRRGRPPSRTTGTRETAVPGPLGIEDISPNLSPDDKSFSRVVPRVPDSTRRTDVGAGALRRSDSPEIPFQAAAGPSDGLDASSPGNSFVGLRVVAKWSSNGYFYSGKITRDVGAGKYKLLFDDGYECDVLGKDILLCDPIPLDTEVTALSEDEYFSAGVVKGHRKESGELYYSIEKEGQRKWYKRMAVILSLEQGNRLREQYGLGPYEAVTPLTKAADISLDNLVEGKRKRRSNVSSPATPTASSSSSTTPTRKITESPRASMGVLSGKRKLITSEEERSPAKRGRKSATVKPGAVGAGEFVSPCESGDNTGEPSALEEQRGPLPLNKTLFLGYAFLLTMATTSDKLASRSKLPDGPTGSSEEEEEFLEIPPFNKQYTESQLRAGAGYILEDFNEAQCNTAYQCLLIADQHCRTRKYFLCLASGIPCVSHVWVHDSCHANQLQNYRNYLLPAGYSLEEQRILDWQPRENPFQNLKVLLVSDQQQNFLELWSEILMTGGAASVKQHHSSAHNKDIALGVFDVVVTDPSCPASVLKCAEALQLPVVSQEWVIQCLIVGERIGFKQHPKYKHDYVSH
# These are yes or no findings as the source states them, for the method shown. Binding seen in cells or lysates may run through a third protein.
# Biological target: 53BP1 expressed in 293T cells (human) (UniProt Q12888)
# Experiment: co-IP; TIRR or its mutants and 53BP1 expressed in 293T cells; lysis in NETN-300, streptavidin sepharose beads 2 h 4 °C, NETN-100 washes; western blot
row,binding,Binder
1,no binding,"TIRR P105A expressed in 293T cells (protein, UniProt Q9BRJ7 1-211) MSTAAVPELKQISRVEAMRLGPGWSHSCHAMLYAANPGQLFGRIPMRFSVLMQMRFDGLLGFPGGFVDRRFWSLEDGLNRVLGLGLGCLRLTEADYLSSHLTEGAHRVVAHLYARQLTLEQLHAVEISAVHSRDHGLEVLGLVRVPLYTQKDRVGGFPNFLSNAFVSTAKCQLLFALKVLNMMPEEKLVEALAAATEKQKKALEKLLPASS"
2,no binding,"TIRR K10E expressed in 293T cells (protein, UniProt Q9BRJ7 1-211) MSTAAVPELEQISRVEAMRLGPGWSHSCHAMLYAANPGQLFGRIPMRFSVLMQMRFDGLLGFPGGFVDRRFWSLEDGLNRVLGLGLGCLRLTEADYLSSHLTEGPHRVVAHLYARQLTLEQLHAVEISAVHSRDHGLEVLGLVRVPLYTQKDRVGGFPNFLSNAFVSTAKCQLLFALKVLNMMPEEKLVEALAAATEKQKKALEKLLPASS"
